# Reference: the supplement of paper PMC8728848
# Some of the results follow.
# B1: LecB PA7 (Pseudomonas aeruginosa) (protein)
# chain: MATQGVFTLPANTRFGVTAFANSSATQTVKVLVNNETAATFTGQSTNNAVIGSQVLNSGGGGKVQIQVSVNGRSSDLVSAQVILANELNVALVGSEDSTDNDYNDAVVVINWPLG
# Assays:
# Assay in all cases: glycan array binding signal (z-score within array); higher = stronger binding
# Details in all cases: glycan notation: IUPAC condensed, linker removed
# [1] = target: Fuc(a1-2)Gal
# Outline: (§1)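 Negative Z-scores can be read as non-binding. The Z-score is calculated within each array and then averaged across arrays of one protein sequence at different concentrations or buffers and across linkers. Arrays, 3228 in all, were curated from the Consortium for Functional Glycomics database and kept only where the protein sequence was available.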
# [2] = target: Fuc(a1-2)Gal(b1-3)GalNAc
# Outline: as §1
# [3] = target: Fuc(a1-2)Gal(b1-3)GalNAc(a1-3)[Fuc(a1-2)]Gal(b1-4)Glc
# Outline: as §1
# [4] = target: Fuc(a1-2)Gal(b1-3)GalNAc(a1-3)[Fuc(a1-2)]Gal(b1-4)GlcNAc
# Outline: as §1
# [5] = target: Fuc(a1-2)Gal(b1-3)GalNAc(b1-3)Gal
# Outline: as §1
# [6] = target: Fuc(a1-2)Gal(b1-3)GalNAc(b1-3)Gal(a1-4)Gal(b1-4)Glc
# Outline: as §1
# [7] = target: Fuc(a1-2)Gal(b1-3)GalNAc(b1-4)[Neu5Ac(a2-3)]Gal(b1-4)Glc
# Outline: as §1
# [8] = target: Fuc(a1-2)Gal(b1-3)GlcNAc
# Outline: as §1
# [9] = target: Fuc(a1-2)Gal(b1-3)GlcNAc(b1-2)Man(a1-3)[Fuc(a1-2)Gal(b1-3)GlcNAc(b1-2)Man(a1-6)]Man(b1-4)GlcNAc(b1-4)GlcNAc
# Outline: as §1
# [10] = target: Fuc(a1-2)Gal(b1-3)GlcNAc(b1-2)Man(a1-3)[Fuc(a1-2)Gal(b1-3)GlcNAc(b1-2)Man(a1-6)]Man(b1-4)GlcNAc(b1-4)[Fuc(a1-6)]GlcNAc
# Outline: as §1
# [11] = target: Fuc(a1-2)Gal(b1-3)GlcNAc(b1-3)Gal(b1-4)Glc
# Outline: as §1
# [12] = target: Fuc(a1-2)Gal(b1-3)GlcNAc(b1-3)GalNAc
# Outline: as §1
# [13] = target: Fuc(a1-2)Gal(b1-3)GlcNAc(b1-3)[Fuc(a1-2)Gal(b1-3)GlcNAc(b1-6)]GalNAc
# Outline: as §1
# [14] = target: Fuc(a1-2)Gal(b1-3)GlcNAc(b1-3)[Gal(b1-4)GlcNAc(b1-6)]Gal(b1-4)Glc
# Outline: as §1
# [15] = target: Fuc(a1-2)Gal(b1-3)GlcNAc(b1-3)[Neu5Ac(a2-6)Gal(b1-4)GlcNAc(b1-6)]Gal(b1-4)Glc
# Outline: as §1
# [16] = target: Fuc(a1-2)Gal(b1-3)GlcNAc6S
# Outline: as §1
# [17] = target: Fuc(a1-2)Gal(b1-3)[Fuc(a1-4)]GlcNAc
# Outline: as §1
# [18] = target: Fuc(a1-2)Gal(b1-3)[Fuc(a1-4)]GlcNAc(b1-2)Man(a1-3)[Fuc(a1-2)Gal(b1-3)[Fuc(a1-4)]GlcNAc(b1-2)Man(a1-3)]Man(b1-4)GlcNAc(b1-4)GlcNAc
# Outline: as §1
# [19] = target: Fuc(a1-2)Gal(b1-3)[Fuc(a1-4)]GlcNAc(b1-2)Man(a1-3)[Fuc(a1-2)Gal(b1-3)[Fuc(a1-4)]GlcNAc(b1-2)Man(a1-6)]Man(b1-4)GlcNAc(b1-4)[Fuc(a1-6)]GlcNAc(b1-4)[Fuc(a1-6)]GlcNAc
# Outline: as §1
# [20] = target: Fuc(a1-2)Gal(b1-3)[Fuc(a1-4)]GlcNAc(b1-3)[Fuc(a1-3)[Gal(b1-4)]GlcNAc(b1-6)]Gal(b1-4)Glc
# Outline: as §1
# [21] = target: Fuc(a1-2)Gal(b1-3)[Fuc(a1-4)]GlcNAc(b1-3)[Gal(b1-4)GlcNAc(b1-6)]Gal(b1-4)Glc
# Outline: as §1
# [22] = target: Fuc(a1-2)Gal(b1-4)Glc
# Outline: as §1
# [23] = target: Fuc(a1-2)Gal(b1-4)Glc6S
# Outline: as §1
# [24] = target: Fuc(a1-2)Gal(b1-4)GlcNAc
# Outline: as §1
# [25] = target: Fuc(a1-2)Gal(b1-4)GlcNAc(b1-2)Man
# Outline: as §1
# [26] = target: Fuc(a1-2)Gal(b1-4)GlcNAc(b1-2)Man(a1-3)[Fuc(a1-2)Gal(b1-4)GlcNAc(b1-2)Man(a1-6)]Man(b1-4)GlcNAc(b1-4)GlcNAc
# Outline: as §1
# [27] = target: Fuc(a1-2)Gal(b1-4)GlcNAc(b1-2)Man(a1-3)[Fuc(a1-2)Gal(b1-4)GlcNAc(b1-2)Man(a1-6)]Man(b1-4)GlcNAc(b1-4)[Fuc(a1-6)]GlcNAc
# Outline: as §1
# [28] = target: Fuc(a1-2)Gal(b1-4)GlcNAc(b1-2)[Fuc(a1-2)Gal(b1-4)GlcNAc(b1-4)]Man(a1-3)[Fuc(a1-2)Gal(b1-4)GlcNAc(b1-2)Man(a1-6)]Man(b1-4)GlcNAc(b1-4)GlcNAc
# Outline: as §1
# [29] = target: Fuc(a1-2)Gal(b1-4)GlcNAc(b1-3)Gal(b1-4)GlcNAc
# Outline: as §1
# [30] = target: Fuc(a1-2)Gal(b1-4)GlcNAc(b1-3)Gal(b1-4)GlcNAc(b1-2)Man(a1-3)[Fuc(a1-2)Gal(b1-4)GlcNAc(b1-3)Gal(b1-4)GlcNAc(b1-2)Man(a1-6)]Man(b1-4)GlcNAc(b1-4)GlcNAc
# Outline: as §1
binder,measurement,setting,value
B1,glycan array binding signal (z-score),[1],1.56
same,glycan array binding signal (z-score),[2],0.771
same,glycan array binding signal (z-score),[3],1.71
same,glycan array binding signal (z-score),[4],1.07
same,glycan array binding signal (z-score),[5],0.062
same,glycan array binding signal (z-score),[6],2.76
same,glycan array binding signal (z-score),[7],0.732
same,glycan array binding signal (z-score),[8],1.44
same,glycan array binding signal (z-score),[9],-0.011
same,glycan array binding signal (z-score),[10],0.703
same,glycan array binding signal (z-score),[11],1.78
same,glycan array binding signal (z-score),[12],1.09
same,glycan array binding signal (z-score),[13],-0.033
same,glycan array binding signal (z-score),[14],0.558
same,glycan array binding signal (z-score),[15],0.012
same,glycan array binding signal (z-score),[16],1.33
same,glycan array binding signal (z-score),[17],1.14
same,glycan array binding signal (z-score),[18],0.011
same,glycan array binding signal (z-score),[19],1.24
same,glycan array binding signal (z-score),[20],0.726
same,glycan array binding signal (z-score),[21],0.667
same,glycan array binding signal (z-score),[22],1.39
same,glycan array binding signal (z-score),[23],1.89
same,glycan array binding signal (z-score),[24],2.27
same,glycan array binding signal (z-score),[25],-0.131
same,glycan array binding signal (z-score),[26],1.78
same,glycan array binding signal (z-score),[27],1.02
same,glycan array binding signal (z-score),[28],1.33
same,glycan array binding signal (z-score),[29],3.5
same,glycan array binding signal (z-score),[30],10.1
